This is one part of the list.
Columns and labels:
Experiment in all cases: glycan array binding signal (z-score within array); higher = stronger binding
Details in all cases: glycan notation: IUPAC condensed, linker removed
[1] = target: Gal(a1-3)Gal(b1-4)GlcNAc(b1-2)Man
Procedure, shortened: (§1)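 Arrays were curated from the Consortium for Functional Glycomics database, 3228 in total, and kept only where the protein sequence was available. Binding is expressed as a within-array Z-score. This score was averaged across arrays of the same protein sequence at different concentrations or buffers and across linkers, and negative values can be read as non-binding.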

[2] = target: Gal(a1-3)Gal(b1-4)GlcNAc(b1-2)Man(a1-3)[Gal(a1-3)Gal(b1-4)GlcNAc(b1-2)Man(a1-6)]Man(b1-4)GlcNAc(b1-4)GlcNAc
Procedure, shortened: as §1

[3] = target: Gal(a1-3)Gal(b1-4)GlcNAc(b1-3)GalNAc
Procedure, shortened: as §1

[4] = target: Gal(a1-3)Gal(b1-4)GlcNAc(b1-6)GalNAc
Procedure, shortened: as §1

[5] = target: Gal(a1-3)Gal(b1-4)[Fuc(a1-3)]GlcNAc
Procedure, shortened: as §1

[6] = target: Gal(a1-3)Gal(b1-4)[Fuc(a1-3)]GlcNAc(b1-2)Man(a1-3)[Gal(a1-3)Gal(b1-4)[Fuc(a1-3)]GlcNAc(b1-2)Man(a1-6)]Man(b1-4)GlcNAc(b1-4)GlcNAc
Procedure, shortened: as §1

Gal(a1-3)GalNAc = target: Gal(a1-3)GalNAc
Procedure, shortened: as §1

[7] = target: Gal(a1-3)[Gal(a1-4)]Gal(b1-4)GlcNAc
Procedure, shortened: as §1

[8] = target: Gal(a1-4)Gal(b1-3)GlcNAc(b1-2)Man(a1-3)[Gal(a1-4)Gal(b1-3)GlcNAc(b1-2)Man(a1-6)]Man(b1-4)GlcNAc(b1-4)GlcNAc
Procedure, shortened: as §1

Gal(a1-4)Gal(b1-4)Glc = target: Gal(a1-4)Gal(b1-4)Glc
Procedure, shortened: as §1

Gal(a1-4)Gal(b1-4)GlcNAc = target: Gal(a1-4)Gal(b1-4)GlcNAc
Procedure, shortened: as §1

[9] = target: Gal(a1-4)Gal(b1-4)GlcNAc(b1-2)Man(a1-3)[Gal(a1-4)Gal(b1-4)GlcNAc(b1-2)Man(a1-6)]Man(b1-4)GlcNAc(b1-4)GlcNAc
Procedure, shortened: as §1

[10] = target: Gal(a1-4)Gal(b1-4)GlcNAc(b1-3)Gal(b1-4)Glc
Procedure, shortened: as §1

Gal(a1-4)GlcNAc = target: Gal(a1-4)GlcNAc
Procedure, shortened: as §1

Gal(a1-6)Glc = target: Gal(a1-6)Glc
Procedure, shortened: as §1

Gal(b1-2)Gal = target: Gal(b1-2)Gal
Procedure, shortened: as §1

Gal(b1-3)Gal = target: Gal(b1-3)Gal
Procedure, shortened: as §1

Gal(b1-3)Gal(b1-4)GlcNAc = target: Gal(b1-3)Gal(b1-4)GlcNAc
Procedure, shortened: as §1

Gal(b1-3)GalNAc = target: Gal(b1-3)GalNAc
Procedure, shortened: as §1

[11] = target: Gal(b1-3)GalNAc(a1-3)[Fuc(a1-2)]Gal(b1-4)Glc
Procedure, shortened: as §1

[12] = target: Gal(b1-3)GalNAc(a1-3)[Fuc(a1-2)]Gal(b1-4)GlcNAc
Procedure, shortened: as §1

Gal(b1-3)GalNAc(b1-3)Gal = target: Gal(b1-3)GalNAc(b1-3)Gal
Procedure, shortened: as §1

[13] = target: Gal(b1-3)GalNAc(b1-3)Gal(a1-4)Gal(b1-4)Glc
Procedure, shortened: as §1

[14] = target: Gal(b1-3)GalNAc(b1-4)Gal(b1-4)Glc
Procedure, shortened: as §1

[15] = target: Gal(b1-3)GalNAc(b1-4)[Neu5Ac(a2-3)]Gal(b1-4)Glc
Procedure, shortened: as §1

Gal(b1-3)GlcNAc = target: Gal(b1-3)GlcNAc
Procedure, shortened: as §1

[16] = target: Gal(b1-3)GlcNAc(a1-3)Gal(b1-4)GlcNAc
Procedure, shortened: as §1

[17] = target: Gal(b1-3)GlcNAc(a1-6)Gal(b1-4)GlcNAc
Procedure, shortened: as §1

Gal(b1-3)GlcNAc(b1-2)Man = target: Gal(b1-3)GlcNAc(b1-2)Man
Procedure, shortened: as §1

[18] = target: Gal(b1-3)GlcNAc(b1-2)Man(a1-3)[Gal(b1-3)GlcNAc(b1-2)Man(a1-6)]Man(b1-4)GlcNAc(b1-4)GlcNAc
Procedure, shortened: as §1

[19] = target: Gal(b1-3)GlcNAc(b1-2)Man(a1-3)[Gal(b1-3)GlcNAc(b1-2)Man(a1-6)]Man(b1-4)GlcNAc(b1-4)[Fuc(a1-6)]GlcNAc
Procedure, shortened: as §1

[20] = target: Gal(b1-3)GlcNAc(b1-2)Man(a1-3)[GlcNAc(b1-4)][Gal(b1-3)GlcNAc(b1-2)Man(a1-6)]Man(b1-4)GlcNAc(b1-4)GlcNAc
Procedure, shortened: as §1

[21] = target: Gal(b1-3)GlcNAc(b1-2)[Gal(b1-3)GlcNAc(b1-6)]Man(a1-6)[Gal(b1-3)GlcNAc(b1-2)Man(a1-3)]Man(b1-4)GlcNAc(b1-4)GlcNAc
Procedure, shortened: as §1

[22] = target: Gal(b1-3)GlcNAc(b1-3)Gal(b1-3)GlcNAc
Procedure, shortened: as §1

[23] = target: Gal(b1-3)GlcNAc(b1-3)Gal(b1-4)Glc
Procedure, shortened: as §1

[24] = target: Gal(b1-3)GlcNAc(b1-3)Gal(b1-4)GlcNAc
Procedure, shortened: as §1

[25] = target: Gal(b1-3)GlcNAc(b1-3)Gal(b1-4)GlcNAc(b1-2)Man(a1-3)[Gal(b1-3)GlcNAc(b1-3)Gal(b1-4)GlcNAc(b1-2)Man(a1-6)]Man(b1-4)GlcNAc(b1-4)GlcNAc
Procedure, shortened: as §1

B1: GS7807H-bfa-490-18-490 (Bacteroides fragilis) (protein)
chain: GNLEEMNIDPDNATQTHPKLLLTQICMNAFKRGTDGMYATKKVIQADGESADQYYKWTRGSFGYYDNLRNVQKMGEEAERVNAPVYTALTKFFRAYYFYELTLRFGDIPYSQALKGEKEEIYTPEYDAQEDVFAGILQELREADEILANDASVIDGDIIYNGNSTQWRKLINSFRLKVLMTLSNHTTVGNINIASEFKNIATNSPLMNSLADNGQLVYLDQQGNRYPQFNAQWSGYYMDDTFIQRMRERRDPRLFIFSAQTNKGKTEGKPIDDFSSYEGGDPAAPYSDAIIKVSEGTISPINDRFRTDPIVEPTMLMGYAELQQILAEAVVRGWISGNAQTYYEKGIRASFSFYETHAKDYAGYLNENAVAQYLKEPLVDFTQASGTEEQIERIIMQKYLVTFYQGNWDSFYEQLRTGYPDFRRPAGTEIPKRWMYPQGEYDNNGTNVETAITRQFGAGNDKINQATWWQKKS
glycan array binding signal (z-score) [1]: -0.183
glycan array binding signal (z-score) [2]: 0.546
glycan array binding signal (z-score) [3]: 1.17
glycan array binding signal (z-score) [4]: -0.527
glycan array binding signal (z-score) [5]: -0.127
glycan array binding signal (z-score) [6]: 1.36
glycan array binding signal (z-score) (Gal(a1-3)GalNAc): -0.364
glycan array binding signal (z-score) [7]: 0.689
glycan array binding signal (z-score) [8]: 0.426
glycan array binding signal (z-score) (Gal(a1-4)Gal(b1-4)Glc): 0.193
glycan array binding signal (z-score) (Gal(a1-4)Gal(b1-4)GlcNAc): 0.003
glycan array binding signal (z-score) [9]: 6.27
glycan array binding signal (z-score) [10]: -0.594
glycan array binding signal (z-score) (Gal(a1-4)GlcNAc): -0.31
glycan array binding signal (z-score) (Gal(a1-6)Glc): -0.313
glycan array binding signal (z-score) (Gal(b1-2)Gal): 0.045
glycan array binding signal (z-score) (Gal(b1-3)Gal): -0.048
glycan array binding signal (z-score) (Gal(b1-3)Gal(b1-4)GlcNAc): -0.396
glycan array binding signal (z-score) (Gal(b1-3)GalNAc): -0.115
glycan array binding signal (z-score) [11]: -0.672
glycan array binding signal (z-score) [12]: 0.516
glycan array binding signal (z-score) (Gal(b1-3)GalNAc(b1-3)Gal): -0.623
glycan array binding signal (z-score) [13]: -0.061
glycan array binding signal (z-score) [14]: -0.255
glycan array binding signal (z-score) [15]: -0.4
glycan array binding signal (z-score) (Gal(b1-3)GlcNAc): -0.335
glycan array binding signal (z-score) [16]: -0.684
glycan array binding signal (z-score) [17]: -0.189
glycan array binding signal (z-score) (Gal(b1-3)GlcNAc(b1-2)Man): 0.866
glycan array binding signal (z-score) [18]: 0.318
glycan array binding signal (z-score) [19]: -0.342
glycan array binding signal (z-score) [20]: -0.324
glycan array binding signal (z-score) [21]: 2.29
glycan array binding signal (z-score) [22]: -0.347
glycan array binding signal (z-score) [23]: -0.456
glycan array binding signal (z-score) [24]: -0.48
glycan array binding signal (z-score) [25]: -0.533

From the supplement of paper PMC8728848
